Laboratory results from the RNAGym collection of RNA variant scans (doi:10.7554/elife.90254).
The source gives no read counts; variants with many changes may rest on few reads.

B1: OR4K15 (parent)
chain: GUUAACGGUCAUAGGCCAUGGAAACUAGGAGCACCAUUUCGCUGCCAGUGAAGAAAUGAACAAAGAAAAUCUGGGCCAGGCAGGCAUCAAAAGAAAUAGUCUUGCGCUCAACCAGAAAGUCUGUAAUCAUUUUAAGGGUA

Variants of: B1
Assay: self-cleavage, relative activity (ratio to wild type); higher = more cleavage; in vitro, sequencing; the parent is a self-cleaving ribozyme
U102C U108C A114U A116G showed a self-cleavage of 0.01.
A89G A116G A126G gave a self-cleavage of 0.34.
Variant A114G A117G A118G U120C U127C has a self-cleavage of 0.02.
U87C A117G U130C gave a self-cleavage of 1.23.
U87C A118C U132C gave a self-cleavage of 0.54.
G119A A129G U130C showed a self-cleavage of 1.92.
In the case of A110G A129G U131C A134G, the self-cleavage is reported as 0.05.
With A89C A94G A126G U131C the self-cleavage was 0.25.
Variant A82G A94G U103C U127C has a self-cleavage of 1.28.
For U100C U108C U122A, the self-cleavage was 0.01.
A111U A114G U122C gave a self-cleavage of 0.02.
Work on U102C A116G U130C yielded a self-cleavage of 0.97.
With A90U A96G U120C the self-cleavage was 1.16.
A95G U102A A116G U133C gave a self-cleavage of 1.28.
With A92G C105U U122A U131C the self-cleavage was 0.02.
With A82U A94G U108C U131A the self-cleavage was 0.03.
U108C A116G U120C showed a self-cleavage of 0.
In the case of A95G A111G A140G, the self-cleavage is reported as 0.01.
U102C A111G A117G gave a self-cleavage of 0.01.
For A86U A110G A117C A134G, the self-cleavage was 0.02.
For A91G A92G U130C, the self-cleavage was 0.54.
Variant A95G A118G A126C has a self-cleavage of 0.61.
U108A A111G A117G showed a self-cleavage of 0.
Work on A111G A118U U122C U124C yielded a self-cleavage of 0.01.
Variant A82G A91U A95G U120C has a self-cleavage of 0.98.
Variant A94U U100A U122C has a self-cleavage of 0.71.
In the case of A91G U127A U139A, the self-cleavage is reported as 1.9.
For U102C A118G U120C A129G, the self-cleavage was 0.29.
With A96G U103A U122C the self-cleavage was 0.37.
In the case of A116G U122C U131C, the self-cleavage is reported as 0.27.
For U87C A96G A111G, the self-cleavage was 0.
Variant A90C U102C A110U U131C has a self-cleavage of 1.39.
Variant A89U G106A A110G has a self-cleavage of 0.01.
Work on A110C A111G A116G U132A A135C yielded a self-cleavage of 0.
Variant A86G U97C U108A has a self-cleavage of 0.02.
C88U A91G U124C gave a self-cleavage of 1.53.
With A86G U108A U124C A126U the self-cleavage was 0.
With G93U A118G U132C the self-cleavage was 1.85.
A117G A129G G137A gave a self-cleavage of 1.04.
Variant A82G A117G U122C A135U has a self-cleavage of 0.19.
U87C A90G U97C showed a self-cleavage of 0.28.
A91C A110G A116G showed a self-cleavage of 0.04.
In the case of A92G C101U U133C, the self-cleavage is reported as 0.49.
In the case of A95G A116U U133C, the self-cleavage is reported as 1.09.
Variant A82G U100C A118G has a self-cleavage of 1.15.
For A86U A90G U102C, the self-cleavage was 1.73.
With A90G A116G A118G the self-cleavage was 0.16.
Work on A96U U108C A125G yielded a self-cleavage of 0.
C85G A90G A126G gave a self-cleavage of 0.69.
In the case of U100C A114U A116G A117U, the self-cleavage is reported as 0.13.
Variant U108C A110G U130C U131C has a self-cleavage of 0.
With U100C U124C A140U the self-cleavage was 1.6.
With A94G A110G U132C the self-cleavage was 0.12.
Variant A117G A126G U130C has a self-cleavage of 1.11.
A96G U102C A116G U122C G137A gave a self-cleavage of 1.46.
A86U U122C U124C showed a self-cleavage of 1.56.
In the case of A91U A118G A129G U133C, the self-cleavage is reported as 0.29.
Work on A92G A116G U131C yielded a self-cleavage of 0.26.
Variant A86G A96U U108C has a self-cleavage of 0.02.
With A91U A92G U97C A111U U120C the self-cleavage was 0.
A82U A98G G106A showed a self-cleavage of 0.01.
For A91G A94G U103G A111G, the self-cleavage was 0.03.
Work on U103C A110G A117G U122C yielded a self-cleavage of 0.01.
For U108G A110U A126G, the self-cleavage was 0.
G84A A118G A129G showed a self-cleavage of 0.7.
Variant A92U A117G A126G A134G U139C has a self-cleavage of 1.69.
For A92G C109U A117C A126G U130G, the self-cleavage was 0.03.
A82G G84U A86G A110G A116G gave a self-cleavage of 0.01.
In the case of A86G A89U A114U A116C U124C U130C A140G, the self-cleavage is reported as 0.
With A86G A90G U139C the self-cleavage was 1.23.
Work on G83A A116G A126G yielded a self-cleavage of 0.93.
A91G U103C G137A showed a self-cleavage of 0.44.
For A82G G123A U127C, the self-cleavage was 0.24.
For A91G C101U A116G A140U, the self-cleavage was 0.17.
With U108C A129G U130C A135G the self-cleavage was 0.01.
A86G A98U U132C showed a self-cleavage of 2.21.
Work on A82G A111G U122A yielded a self-cleavage of 0.01.
U102C C113U U139C showed a self-cleavage of 0.05.
A95G U97G A116G A125G showed a self-cleavage of 0.32.
Work on A86G A117G A129G A135U yielded a self-cleavage of 1.5.
Variant A90G A94C U108C has a self-cleavage of 0.01.
With A82G A114C A126C the self-cleavage was 0.
G83A U87C U102A showed a self-cleavage of 0.18.
